# In paper PMC4336329 (PLoS ONE, 2015):
# About 2,200 (0.71%) of roughly 310,000 compounds showed an effect of 50% or more. The effect is printed as a negative number. The list shows a part of the results.
# Target: human ether-à-go-go-related gene (hERG) potassium channel (human, UniProt Q12809)
# Test: primary screen, population patch clamp on CHO cells stably expressing hERG
# human ether-à-go-go-related gene (hERG) potassium channel, sequence (Q12809 whole entry, looked up): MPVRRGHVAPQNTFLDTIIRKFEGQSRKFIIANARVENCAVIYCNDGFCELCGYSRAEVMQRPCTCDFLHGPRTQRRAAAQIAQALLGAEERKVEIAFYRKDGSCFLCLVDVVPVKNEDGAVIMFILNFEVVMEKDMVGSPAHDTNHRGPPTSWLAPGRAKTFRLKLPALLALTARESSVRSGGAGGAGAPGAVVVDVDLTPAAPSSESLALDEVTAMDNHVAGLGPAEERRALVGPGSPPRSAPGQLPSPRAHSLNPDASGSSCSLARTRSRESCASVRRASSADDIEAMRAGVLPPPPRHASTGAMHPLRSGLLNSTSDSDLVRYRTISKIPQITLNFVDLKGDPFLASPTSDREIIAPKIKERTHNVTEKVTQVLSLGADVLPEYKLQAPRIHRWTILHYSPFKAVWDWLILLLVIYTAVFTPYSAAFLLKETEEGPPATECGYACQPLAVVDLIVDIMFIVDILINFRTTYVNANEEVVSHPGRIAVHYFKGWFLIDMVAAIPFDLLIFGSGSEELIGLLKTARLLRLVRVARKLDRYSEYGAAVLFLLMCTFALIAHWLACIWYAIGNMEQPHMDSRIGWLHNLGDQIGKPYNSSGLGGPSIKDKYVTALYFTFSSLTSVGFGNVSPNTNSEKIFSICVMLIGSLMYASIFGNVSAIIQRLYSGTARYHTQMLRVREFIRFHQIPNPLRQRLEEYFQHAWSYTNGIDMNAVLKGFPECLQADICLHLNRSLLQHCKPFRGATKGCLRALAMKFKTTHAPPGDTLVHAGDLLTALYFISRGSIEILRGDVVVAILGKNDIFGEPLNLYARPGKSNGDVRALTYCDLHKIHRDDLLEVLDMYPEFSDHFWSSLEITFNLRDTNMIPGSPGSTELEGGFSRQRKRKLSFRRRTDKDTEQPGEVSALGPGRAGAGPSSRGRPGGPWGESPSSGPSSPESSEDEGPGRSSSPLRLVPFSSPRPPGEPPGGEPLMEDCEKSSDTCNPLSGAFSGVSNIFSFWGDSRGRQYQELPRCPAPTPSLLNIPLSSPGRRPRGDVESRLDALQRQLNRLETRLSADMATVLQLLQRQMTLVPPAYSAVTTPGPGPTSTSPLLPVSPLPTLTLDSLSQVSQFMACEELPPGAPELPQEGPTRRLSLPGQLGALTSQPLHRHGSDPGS
row,Compound,"hERG current change (%, negative = inhibition) at 1uM [%]"
1,COc1ccc(Cl)cc1NC(=O)C(C)OC(=O)c1ccc(NS(=O)(=O)c2ccc3[nH]c(=O)[nH]c3c2)cc1 (centres unmarked),12.8
2,COc1ccc(CNCCc2c[nH]c3ccccc23)c(OC)c1OC.O=C(O)C(=O)O,14.7
3,CC(C)Cn1c(-c2cccs2)nc2ccccc21,0.916
4,CCn1nc(C)cc1C(=O)N1CCCC(C(=O)c2ccc(OC)cc2C)C1 (centres unmarked),9.69
5,O=C(CCc1ccccc1)N1CCN(c2ccccn2)CC1,1.99
6,CCOc1ccc(S(=O)(=O)NCCC(=O)NCC2CCCO2)cc1 (centres unmarked),15.9
7,COC(=O)COc1ccc(S(=O)(=O)Nc2ccc3c(c2)OCO3)cc1,12.9
8,COc1cc(NC(=O)c2ccccc2Cl)c2ncccc2c1,1.95
9,Cc1ccnc(NC(=O)CCC(=O)N(CC(=O)NC(C)(C)C)Cc2ccc3c(c2)OCO3)c1,7.87
10,CCOC(=O)c1cc(-c2cccs2)nc2onc(C)c12,11.1
11,O=C(NC(=S)Nc1ncccn1)c1ccc(Cl)cc1Cl,7.59
12,O=C(Cn1cccn1)N1CCCC(Nc2ccc(F)c(F)c2)C1 (centres unmarked),-15.6
13,NC(=O)c1ccsc1NC(=O)c1ccc(S(=O)(=O)N2CCCCC2)cc1,3.14
14,COc1ccc(C2CC(c3c(O)cc(C)oc3=O)=NCCS2)c(OC)c1 (centres unmarked),6.26
15,Cc1nc(N2CCN(c3ccccc3O)CC2)c2c(-c3ccccc3)csc2n1,13.1
16,CCOc1cc(N2CCOCC2)c(OCC)cc1NC(=O)c1ccc2ncsc2c1,9.61
17,Cc1ccc(/C=C/S(=O)(=O)NCC(=O)OCC(=O)Nc2ccc(C(N)=O)cc2)cc1,-6.35
18,O=C1/C(=C/c2cccs2)SC(=S)N1CCC(=O)N1CCCCC1CCO (centres unmarked),13.9
19,CC(=O)Nc1ccc(S(=O)(=O)N(C)CC(=O)OCC(=O)Nc2cc(C)on2)cc1,7.17
20,COc1ccc(S(=O)(=O)Nc2ccc(F)c(F)c2)cc1C(=O)N1CCOCC1,13.1
21,CCc1ccc(NC(=O)C(=O)NCCN2CCN(C(=O)c3ccco3)CC2)cc1,-49.1
22,Cc1cc(C)nc(N2CCC(C(=O)Nc3ccc4c(c3)OCO4)CC2)n1,1.95
23,Cc1cccc(C)c1NC(=O)c1cc2c(=O)c3ccccc3oc2nc1C(F)(F)F,-3.29
